Source: the supplement of paper PMC4967469
The IC50 comes from the fitted curve, where viability falls to half of the control; a limit (>, <) means that the fit lies beyond the doses tested. AUC, from the same fit, is the share of area under the viability curve across the 256-fold dose range; the more sensitive the line, the further below 1. For part of these data: The top dose, if marked as inferred, comes from the curve model; the source does not state it. For part of these data: Drugs with an entry number were screened twice under separate entries, and the two screens often disagree.

Key:
Assay in all cases: Viability of human cancer cell lines after 72 h of drug (GDSC screen)
ZM-447439 = compound: COc1cc2c(Nc3ccc(NC(=O)c4ccccc4)cc3)ncnc2cc1OCCCN1CCOCC1 [ZM-447439]; conditions: top dose inferred
Experimental: (§1)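 Human cancer cell lines in 384-well plates, medium with 10% serum, drug for 72 h over a 256-fold dose range (nine 2-fold or five 4-fold steps up to the top dose). Adherent lines were fixed and stained with the nucleic acid dye Syto60, suspension lines read with resazurin; signal relative to control wells, capped at 0 and 100%. One two-parameter sigmoid per drug and line, fitted in a mixed model over all curves with the slope shared within a line.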

AZD6244 = compound: Cn1cnc2c(F)c(Nc3ccc(Br)cc3Cl)c(C(=O)NOCCO)cc21 [AZD6244]; conditions: screen: GDSC drug entry 1062
Experimental: as §1

PD-0332991 = compound: CC(=O)c1c(C)c2cnc(Nc3ccc(N4CCNCC4)cn3)nc2n(C2CCCC2)c1=O [PD-0332991]
Experimental: as §1

Cell Line	AUC (ZM-447439)	IC50 (ZM-447439) [µM]	AUC (AZD6244)	IC50 (AZD6244) [µM]	AUC (PD-0332991)	IC50 (PD-0332991) [µM]
OCI-LY7 (B-cell lymphoma, suspension, top dose 4 µM)	0.689	0.717	0.997	> 4	0.584	0.399
OCI-LY-19 (B-cell lymphoma, suspension, top dose 4 µM)	0.838	2.4	0.984	> 4	0.816	2
OCI-M1 (acute myeloid leukaemia, suspension, top dose 4 µM)	0.991	> 4	0.993	> 4	0.995	> 4
OCUB-M (breast, adherent, top dose 4 µM)	0.838	2.19	0.938	> 4	0.972	> 4
OCUM-1 (stomach, adherent, top dose 4 µM)	0.9	> 4	0.967	> 4	0.895	> 4
OE19 (oesophagus, adherent, top dose 4 µM)	0.921	> 4	0.884	> 4	0.966	> 4
OE21 (oesophagus, adherent, top dose 4 µM)	0.863	> 4	0.928	> 4	0.674	0.924
OE33 (oesophagus, adherent, top dose 4 µM)	0.964	> 4	0.951	> 4	0.795	2.27
ONS-76 (medulloblastoma, adherent, top dose 4 µM)	0.87	> 4	0.518	0.282	0.57	0.394
OPM-2 (myeloma, suspension, top dose 4 µM)	0.994	> 4	0.993	> 4	0.993	> 4
OS-RC-2 (kidney, adherent, top dose 4 µM)	0.87	> 4	0.745	1.77	0.612	0.584
OSC-19 (head and neck, adherent, top dose 4 µM)	0.845	3.07	0.961	> 4	0.718	1.07
OSC-20 (head and neck, adherent, top dose 2 µM)	0.921	> 2	0.899	> 2	0.816	1.38
OV-56 (ovary, adherent, top dose 4 µM)	0.961	> 4	0.878	3.78	0.729	1.09
OV-90 (ovary, adherent, top dose 4 µM)	0.925	> 4	0.936	> 4	0.937	> 4
OVCA420 (ovary, adherent, top dose 4 µM)	0.982	> 4	0.82	3.39	0.949	> 4
OVCAR-4 (ovary, adherent, top dose 4 µM)	0.903	> 4	0.875	> 4	0.951	> 4
OVCAR-8 (ovary, adherent, top dose 4 µM)	0.926	> 4	0.958	> 4	0.971	> 4
OVK-18 (ovary, adherent, top dose 4 µM)	0.742	1.34	0.895	> 4	0.786	1.94
OVKATE (ovary, adherent, top dose 4 µM)	0.979	> 4	0.978	> 4	0.931	> 4
OVMIU (ovary, adherent, top dose 4 µM)	0.904	> 4	0.696	1.02	0.931	> 4
P12-ICHIKAWA (T-cell lymphoblastic leukaemia, suspension, top dose 4 µM)	0.724	0.906	0.988	> 4	0.84	1.89
P30-OHK (lymphoblastic leukaemia, suspension, top dose 4 µM)	0.807	1.65	0.978	> 4	0.685	0.743
P31-FUJ (acute myeloid leukaemia, suspension, top dose 4 µM)	0.753	1.06	0.996	> 4	0.996	> 4
P32-ISH (Burkitt lymphoma, suspension, top dose 4 µM)	0.784	1.27	0.995	> 4	0.969	> 4

Cell Line	AUC (ZM-447439)	IC50 (ZM-447439) [µM]	AUC (AZD6244)	IC50 (AZD6244) [µM]	AUC (PD-0332991)	IC50 (PD-0332991) [µM]
PA-1 (ovary, adherent, top dose 4 µM)	0.931	> 4	0.985	> 4	0.867	2.38
PA-TU-8902 (pancreas, adherent, top dose 4 µM)	0.905	> 4	0.593	0.47	0.842	3.53
PANC-02-03 (pancreas, adherent, top dose 4 µM)	0.935	> 4	0.958	> 4	0.812	2.68
PANC-03-27 (pancreas, adherent, top dose 4 µM)	0.895	> 4	0.842	2.56	0.964	> 4
PANC-04-03 (pancreas, adherent, top dose 4 µM)	0.976	> 4	0.685	1.13	0.795	3.35
PANC-10-05 (pancreas, adherent, top dose 2 µM)	0.975	> 2	0.867	> 2	0.919	> 2
PC-3 (prostate, adherent, top dose 2 µM)	0.918	> 2	0.921	> 2	0.734	0.683
PC-3 [JPC-3] (lung adenocarcinoma, adherent, top dose 4 µM)	0.972	> 4	0.969	> 4	0.899	> 4
PC-14 (lung adenocarcinoma, adherent, top dose 4 µM)	0.952	> 4	0.989	> 4	0.955	> 4
PCI-15A (head and neck, adherent, top dose 4 µM)	0.988	> 4	0.988	> 4	0.845	2.93
PCI-30 (head and neck, adherent, top dose 4 µM)	0.921	> 4	0.946	> 4	0.759	1.7
PE/CA-PJ15 (head and neck, adherent, top dose 4 µM)	0.962	> 4	0.739	1.28	0.889	> 4
PEO1 (ovary, adherent, top dose 4 µM)	0.914	> 4	0.987	> 4	0.832	2.7
PF-382 (T-cell lymphoblastic leukaemia, suspension, top dose 4 µM)	0.874	3.06	0.991	> 4	0.884	3.4
PFSK-1 (medulloblastoma, adherent, top dose 4 µM)	0.879	> 4	0.973	> 4	0.923	> 4
PSN1 (pancreas, adherent, top dose 4 µM)	0.892	3.4	0.559	0.352	0.966	> 4
PWR-1E (prostate, adherent, top dose 4 µM)	0.941	> 4	0.968	> 4	0.985	> 4
QGP-1 (pancreas, adherent, top dose 4 µM)	0.974	> 4	0.977	> 4	0.948	> 4
QIMR-WIL (acute myeloid leukaemia, suspension, top dose 4 µM)	0.935	> 4	0.985	> 4	0.917	> 4
RC-K8 (B-cell lymphoma, suspension, top dose 4 µM)	0.993	> 4	0.992	> 4	0.993	> 4
RCC10RGB (kidney, adherent, top dose 4 µM)	0.969	> 4	0.849	> 4	0.871	> 4
RCC-AB (kidney, adherent, top dose 4 µM)	0.965	> 4	0.956	> 4	0.823	3.38
RCC-FG2 (kidney, adherent, top dose 4 µM)	0.926	> 4	0.879	> 4	0.782	2.16
RCC-JF (kidney, adherent, top dose 4 µM)	0.927	> 4	0.563	0.379	0.578	0.42
RCC-JW (kidney, adherent, top dose 4 µM)	0.946	> 4	0.961	> 4	0.74	1.24
